{
  "source": "paper PMC11963566",
  "about": "“A phase I, single-center, randomized, open-label, three-period crossover study to evaluate the drug–drug interaction between ZSP1273 and oseltamivir in healthy Chinese subjects” (Antimicrobial Agents and Chemotherapy, 2025)",
  "origin": "cited, not measured here",
  "tested_on": "influenza A",
  "conditions": "human, in vivo; cited from earlier work",
  "data": [
    {"smiles": "O=C(O)[C@H]1C2CCC(CC2)[C@@H]1Nc1nc(-c2n[nH]c3ncc(F)cc23)nc(C2CC2)c1F", "note": "[ZSP1273]", "values": [
      {"measurement": "safety profile versus placebo", "result": "a safety profile comparable to placebo"}
    ]}
  ]
}
